Article PMC4336329 (PLoS ONE, 2015)
The whole screen tested about 310,000 compounds, of which about 14,000 (4.5%) showed an effect of 50% or more. The effect is printed as a negative number. This is one part of the list. Where a SMILES comes first, the peptide text is derived from it. [ ]: non-standard residue; d: D form. pGlu = O=C1CC[CH](C(=O)O)N1

Biological target: human ether-à-go-go-related gene (hERG) potassium channel (human, UniProt Q12809)
Assay: primary screen, population patch clamp on CHO cells stably expressing hERG
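Also: peak tail current of the secondary pulse compared with the same well before compound.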

Sequence of human ether-à-go-go-related gene (hERG) potassium channel (Q12809 whole entry, looked up): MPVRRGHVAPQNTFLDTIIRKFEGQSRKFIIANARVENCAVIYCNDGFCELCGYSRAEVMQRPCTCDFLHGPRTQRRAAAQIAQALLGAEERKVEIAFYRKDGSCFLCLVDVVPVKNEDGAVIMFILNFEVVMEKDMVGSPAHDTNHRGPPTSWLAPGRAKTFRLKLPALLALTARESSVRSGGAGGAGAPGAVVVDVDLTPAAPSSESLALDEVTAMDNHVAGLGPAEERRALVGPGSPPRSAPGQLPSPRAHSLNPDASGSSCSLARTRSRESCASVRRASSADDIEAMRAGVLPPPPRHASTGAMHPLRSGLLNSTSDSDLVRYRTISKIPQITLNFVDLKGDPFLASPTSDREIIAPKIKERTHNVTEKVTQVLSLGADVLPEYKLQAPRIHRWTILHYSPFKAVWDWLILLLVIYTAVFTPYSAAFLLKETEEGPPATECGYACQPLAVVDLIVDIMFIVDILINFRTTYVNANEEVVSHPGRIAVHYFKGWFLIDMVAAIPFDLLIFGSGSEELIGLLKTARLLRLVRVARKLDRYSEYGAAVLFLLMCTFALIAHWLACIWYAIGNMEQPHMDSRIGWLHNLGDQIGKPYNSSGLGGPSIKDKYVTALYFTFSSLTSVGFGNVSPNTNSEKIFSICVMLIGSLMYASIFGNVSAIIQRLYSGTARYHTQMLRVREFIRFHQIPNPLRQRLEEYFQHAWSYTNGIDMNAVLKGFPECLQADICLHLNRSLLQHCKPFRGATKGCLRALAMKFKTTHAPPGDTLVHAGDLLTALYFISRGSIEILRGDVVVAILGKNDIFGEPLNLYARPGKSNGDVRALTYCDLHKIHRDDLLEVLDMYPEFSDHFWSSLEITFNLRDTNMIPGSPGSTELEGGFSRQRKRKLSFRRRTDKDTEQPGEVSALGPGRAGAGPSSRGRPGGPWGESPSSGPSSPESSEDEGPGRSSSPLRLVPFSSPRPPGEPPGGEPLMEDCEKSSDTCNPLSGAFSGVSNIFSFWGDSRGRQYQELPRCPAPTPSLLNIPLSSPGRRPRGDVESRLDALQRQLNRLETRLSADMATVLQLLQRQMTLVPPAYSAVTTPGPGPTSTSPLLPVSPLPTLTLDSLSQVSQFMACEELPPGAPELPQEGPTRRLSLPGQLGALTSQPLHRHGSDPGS

Going from `Cc1ccccc1NC(=O)Cc1nc(COC(=O)CCc2ccccc2)cs1` to `CCOC(=O)Cc1csc(NC(=O)CN2C(=O)c3ccccc3S2(=O)=O)n1`, the “hERG current change (%, negative = inhibition) at 10uM” value falls from -4.83% to -5.8%.

First: COc1cccc(C(=O)Nc2cccc(S(=O)(=O)NC3=NCCC3)c2)c1
Second: O=C(Nc1nc2ccccc2[nH]1)c1cccc(S(=O)(=O)N2CCOCC2)c1
The “hERG current change (%, negative = inhibition) at 10uM” value of the first is higher: 8.06% for the first, -8.91% for the second.

Compared with `CCCCN(C(=O)c1cc2c(s1)CCCCC2)c1c(N)n(CCC)c(=O)[nH]c1=O`, `COCCN(C(=O)c1ccc(-c2ccc(Cl)cc2)o1)c1c(N)n(CC(C)C)c(=O)[nH]c1=O` is lower in “hERG current change (%, negative = inhibition) at 10uM” value: 16% for the first, -6.26% for the second.

Compared with `Cc1cc(C)c(S(=O)(=O)N2CCOCC2)cc1NS(=O)(=O)c1cc(OCC(N)=O)c(C)cc1Cl`, `CCOC(=O)c1ccccc1NC(=O)c1cc(S(=O)(=O)N2CCOCC2)ccc1F` is lower in “hERG current change (%, negative = inhibition) at 10uM” value: 6.6% for the first, -5.63% for the second.

Going from `Cc1ccc(C2(c3noc(CN4C[C@@H](C)O[C@@H](C)C4)n3)CCCC2)cc1` to `CC(=O)N1CCCc2cc(S(=O)(=O)N3CCCC(C(=O)NCc4ccc(C)cc4)C3)ccc21` (stereo not drawn), the “hERG current change (%, negative = inhibition) at 10uM” value falls from 14.3% to -11.7%.

Compared with `O=C(NNC(=O)C1C2CCC(C2)C1C(=O)O)c1cccc(Cl)c1` (stereo not drawn), `O=C(c1ccco1)N1CCN(S(=O)(=O)c2cc(Cl)ccc2Cl)CC1` is lower in “hERG current change (%, negative = inhibition) at 10uM” value: 3.82% for the first, -21.5% for the second.

Going from `COC(=O)Cn1cc(/C=N/NC(=O)COc2cccc3cccnc23)c2ccccc21` to `C=CCn1c(N)cc(=O)nc1SCC(=O)Nc1cccc2ccccc12`, the “hERG current change (%, negative = inhibition) at 10uM” value rises from -17.6% to 15%.

Going from `O=C(CCSc1nnc2ccccn12)Nc1ccc(F)cc1` to `O=C(CCCn1c(SCC(=O)c2ccc(F)cc2)nc2ccccc2c1=O)NCc1ccco1`, the “hERG current change (%, negative = inhibition) at 10uM” value rises from -8.83% to 5.7%.

Going from `Cl.N=C(c1ccc([N+](=O)[O-])cc1)N1CCCCCC1` to `Cc1ccc(S(=O)(=O)N2CCN(C(=O)c3ccc(N4CCCC4)c([N+](=O)[O-])c3)CC2)cc1`, the “hERG current change (%, negative = inhibition) at 10uM” value falls from -8.91% to -18.1%.

First: Cn1cc(CNC(=O)c2sc3cccc(Cl)c3c2Cl)cn1
Second: Cn1ncc(Cl)c1C(=O)Nc1ccc(CN2CCCCC2)cc1
The “hERG current change (%, negative = inhibition) at 10uM” value of the first is lower: -7.27% for the first, 11% for the second.

Compared with `O=C(CS(=O)(=O)c1cn(CC(=O)N2CCOCC2)c2ccccc12)Nc1ccccc1F`, `CC(=O)Nc1cccc(OC(=O)N2CCOCC2)c1` is higher in “hERG current change (%, negative = inhibition) at 10uM” value: 0.801% for the first, 18.4% for the second.

First: Cc1nn(C)cc1C(=O)c1ccccc1
Second: O=C(OCC(=O)c1ccc[nH]1)c1ccccc1
The “hERG current change (%, negative = inhibition) at 10uM” value of the first is higher: 15.8% for the first, 9.09% for the second.

Going from `COc1ccc2oc(C(=O)OCC(=O)/C(C#N)=C(\C)N)c(C)c2c1` to `CCC(C)NC(=O)CS(=O)Cc1nc(-c2cccc(OC)c2)oc1C` (stereo not drawn), the “hERG current change (%, negative = inhibition) at 10uM” value falls from 13.8% to 2.84%.

Going from `CCOC(=O)c1sc(NC(=O)C2CC(=O)N(c3ccccc3OC)C2)nc1C` (stereo not drawn) to `CCOC(=O)c1sc(NC(=O)CSCc2c(C)noc2C)nc1C`, the “hERG current change (%, negative = inhibition) at 10uM” value falls from -9.02% to -16.3%.

Going from `O=C(N/N=C/c1ccccc1)c1cc(-c2ccc3c(c2)OCO3)n[nH]1` to `COc1ccc2[nH]c(C(=O)NCc3ccccc3)cc2c1`, the “hERG current change (%, negative = inhibition) at 10uM” value falls from 16% to -0.642%.

First: COCCCN1C(=O)C(=O)/C(=C(/O)c2ccc3c(c2)OCCO3)C1c1ccc(C(=O)OC)cc1 (stereo not drawn)
Second: CCOCCn1c(=NC(=O)c2ccc(S(=O)(=O)N3CCOCC3)cc2)sc2cc(S(N)(=O)=O)ccc21
The “hERG current change (%, negative = inhibition) at 10uM” value of the first is higher: 1.43% for the first, -1.42% for the second.

First: C=CCn1c(SCC(=O)Nc2nc(C)cs2)nnc1C(CO)NC(=O)c1ccccc1 (stereo not drawn)
Second: Cc1csc(Nc2ccccc2)n1
The “hERG current change (%, negative = inhibition) at 10uM” value of the first is lower: 2.67% for the first, 14.5% for the second.

Compared with `CC(C)CC(NC(=O)C(CO)NC(=O)C1CCC(=O)N1)C(N)=O` (stereo not drawn) ([pGlu]-Ser-Leu-NH2; configuration not given here), `CC(=O)NC(C)C(=O)OCC(=O)c1ccc(-c2ccccc2)cc1` (stereo not drawn) is higher in “hERG current change (%, negative = inhibition) at 10uM” value: 18.5% for the first, 32.4% for the second.

First: Br.CC1CCN(Cc2nnnn2-c2cccc([N+](=O)[O-])c2)CC1
Second: O=C(CSc1nc2ccccc2[nH]1)NCCN1CCCCC1
The “hERG current change (%, negative = inhibition) at 10uM” value of the first is lower: -10.8% for the first, -0.0835% for the second.

Going from `Cc1nc(/C(N)=N/OC(=O)c2ccccc2Cl)c(C(F)(F)F)o1` to `CN(CC(=O)Nc1ccccc1Cl)C(=O)COC(=O)c1nc(Cl)ccc1Cl`, the “hERG current change (%, negative = inhibition) at 10uM” value falls from 5.8% to -20%.

Going from `CC(=O)OC(COc1ccccc1)Cn1cnc2cc(C)c(C)cc21.Cl` (stereo not drawn) to `COc1ccc(OC)c(S(=O)(=O)n2nc(-c3ccccc3)cc2N)c1`, the “hERG current change (%, negative = inhibition) at 10uM” value falls from 1.16% to -7.94%.

First: Cc1cccc(CSc2nnc(CCCCCNC(=O)OC(C)(C)C)o2)c1
Second: COc1ccc(-c2noc(CCC(=O)NCc3cccnc3)n2)cc1OC
The “hERG current change (%, negative = inhibition) at 10uM” value of the first is lower: -13.3% for the first, 0.925% for the second.

First: CCOC(=O)CSc1nc2c(sc(=S)n2-c2ccccc2OC)c(=O)n1-c1ccccc1OC
Second: CCOC(=O)c1ccc(Nc2cc3ccccc3c(=O)[nH]2)cc1
The “hERG current change (%, negative = inhibition) at 10uM” value of the first is higher: 7.71% for the first, 6.7% for the second.

First: C=CCc1cc(Cl)ccc1OCCCNCCO.O=C(O)C(=O)O
Second: COCCCNC(=O)CC(=O)N/N=C\c1ccc(SC)cc1
The “hERG current change (%, negative = inhibition) at 10uM” value of the first is lower: -27.1% for the first, 8.87% for the second.

Going from `C=CCSc1nc2nc(C)cc(C)n2n1` to `Cc1cc(C)n(CC(=O)NNC(=O)C2CC(=O)N(Cc3ccccc3Cl)C2)n1` (stereo not drawn), the “hERG current change (%, negative = inhibition) at 10uM” value falls from 2.28% to 1.16%.

First: NNc1nc2sc3c(c2c(=O)n1Cc1ccccc1)CCC3
Second: Cc1nnc(SCC2=C(C(=O)[O-])N3C(=O)C(NC(=O)Cc4ccccc4)C3SC2)s1.[Na+] (stereo not drawn)
The “hERG current change (%, negative = inhibition) at 10uM” value of the first is lower: -4.1% for the first, 9.74% for the second.

First: CC(C)C(=O)c1c(C(C)C)nn2ccccc12
Second: COC(=O)Cc1cc(=O)[nH]c(/N=C(\N)Nc2ccccc2C)n1
The “hERG current change (%, negative = inhibition) at 10uM” value of the first is higher: 5.59% for the first, -4.72% for the second.

First: Clc1ccc(Cc2ccccc2)nn1
Second: O=C(CSc1ncccn1)c1ccccc1Br
The “hERG current change (%, negative = inhibition) at 10uM” value of the first is higher: 4.59% for the first, -14.4% for the second.

First: CC(C)N(CCNC(=O)COc1ccc2oc3c(c2c1)CCCC3)C(C)C
Second: Cc1ccc(NC(=O)CNCC2CCCCC2)cc1S(=O)(=O)N(C)C
The “hERG current change (%, negative = inhibition) at 10uM” value of the first is lower: -73.3% for the first, -9.36% for the second.

Compared with `Cc1cc2c(cc1C)CSC(c1c(O)ccc3ccccc13)SC2`, `Cc1ccc(NC(=O)CN(C)C(=O)c2nn(C)c(=O)c3ccccc23)cc1` is lower in “hERG current change (%, negative = inhibition) at 10uM” value: 32.3% for the first, -35.7% for the second.

Going from `CN(C)C=NC(=O)/C(C#N)=C/c1ccccc1` to `N#C/C(=C\c1ccccc1)c1ccccn1`, the “hERG current change (%, negative = inhibition) at 10uM” value rises from 13.2% to 30%.

First: O=C1c2ccccc2C(Nc2ccc(Cl)cn2)N1c1cccnc1 (stereo not drawn)
Second: O=C1Nc2ccccc2C1=Nc1ccc(Cl)cc1
The “hERG current change (%, negative = inhibition) at 10uM” value of the first is lower: -16.5% for the first, 19.9% for the second.

Going from `CCc1ccc(-c2cc(C(=O)Nn3cnnc3)c3ccccc3n2)cc1` to `C[C@H](NC(=O)c1ccccc1Cl)C(=O)NCCc1ccc(S(N)(=O)=O)cc1`, the “hERG current change (%, negative = inhibition) at 10uM” value falls from 10.7% to -4.02%.

First: COc1ccc(/C=N/Nc2ccccn2)cc1OC
Second: COc1ccc(CC(=O)N/N=C/c2cccs2)cc1OC
The “hERG current change (%, negative = inhibition) at 10uM” value of the first is lower: 7.51% for the first, 12% for the second.

Going from `Cc1cc(C)c2nc(NCCCNC(=S)NCCCN(C)C)c(C#N)cc2c1` to `Cc1cc(C)c(NC(=O)CNC(=O)c2ccc3c(=O)n4c(nc3c2)CCC4)c(C)c1`, the “hERG current change (%, negative = inhibition) at 10uM” value falls from 19.4% to 6.54%.

Going from `CCCN(CCC)CCCNC(=O)c1cn(CC)c2ccc(S(=O)(=O)N3CCc4ccccc4C3)cc2c1=O` to `Cc1ccccc1C(=O)NCCN=C1NS(=O)(=O)c2ccccc21`, the “hERG current change (%, negative = inhibition) at 10uM” value rises from -69.9% to 10.8%.

Going from `C/C(CC(=O)NCc1ccccc1)=N\NC(N)=S` to `O=C(CSc1ccccc1F)NC(=O)NCc1ccco1`, the “hERG current change (%, negative = inhibition) at 10uM” value falls from 15.9% to -7.03%.

Going from `COCCN(C(=O)CSc1ncc(C(F)(F)F)cc1Cl)c1c(N)n(Cc2ccccc2)c(=O)[nH]c1=O` to `O=C(CN1CCN(C(=O)c2ccco2)CC1)Nc1cc(C(F)(F)F)ccc1Cl`, the “hERG current change (%, negative = inhibition) at 10uM” value falls from -5.25% to -63.6%.

Going from `O=[n+]1c2c(n([O-])c3cc(F)c(F)cc31)CCCC2` to `COc1ccc(OC)c(C(=O)Cn2c3[n+](c4ccc(C(F)(F)F)cc42)CCCCC3)c1.[Cl-]`, the “hERG current change (%, negative = inhibition) at 10uM” value falls from 10.2% to -8.32%.

Going from `COc1cc(/C(C)=N/Nc2ccc(C(=O)O)cc2)cc(OC)c1OC` to `COC(=O)C1N[C@@H]([C@@H](NC(=O)COc2ccccc2)C(=O)Nc2ccc(OC)cc2)SC1(C)C` (stereo partly drawn), the “hERG current change (%, negative = inhibition) at 10uM” value falls from -5.38% to -27.7%.

First: COc1ccc(CNC(=O)C2(CC3CC(c4ccccc4)=NO3)CCN(C(=O)c3cccc(O)c3)CC2)cc1 (stereo not drawn)
Second: CC1=C(C(=O)Nc2ccccn2)C(c2ccc(Cl)cc2)NC(=S)N1 (stereo not drawn)
The “hERG current change (%, negative = inhibition) at 10uM” value of the first is lower: -68.2% for the first, -1.8% for the second.

Going from `CCCCNC(=O)CNC(=O)c1cccs1` to `CC(OC(=O)CCN=C1NS(=O)(=O)c2ccccc21)C(=O)Nc1ccc(F)cc1Cl` (stereo not drawn), the “hERG current change (%, negative = inhibition) at 10uM” value falls from 11.8% to -3.04%.

First: Cc1ccc(S(=O)(=O)Nc2c(C)nn(C)c2C)c(C)c1
Second: COc1cc(OC)cc(Oc2ccc(S(=O)(=O)N3CCCCC3)cc2[N+](=O)[O-])c1
The “hERG current change (%, negative = inhibition) at 10uM” value of the first is lower: -23% for the first, 1.5% for the second.

`CN(C)c1oc(-c2ccccc2Cl)nc1C#N` was tested, and the “hERG current change (%, negative = inhibition) at 10uM” value was -3.24%.
